EP1038870A1, “3,3-bis(aryl)-5-((N-(un)substituted)amido)naphthopyrans, their preparation, compositions and (co)polymer matrices containing them” (Corning S.A., priority 1999, dated 2000)
The name of at least one read-out is uncertain.

Experiment: Photochromic properties of lens samples (2 mm, compound in the mass of cross-linked matrix I or II) exposed to UV radiation from a xenon lamp
Type: physicochemical
Conditions: lens sample, return to the initial state when exposure is cut off at equilibrium
From the text: The matrix used in accordance with the present invention may be one of two types:
A homopolymer of the monomer DIACRYL 121 (D121 : tetraethoxylated Bisphenol A dimethylmethacrylate), marketed by Akzo Nobel; or
A copolymer comprised of a 50/50 mixture by weight of D121 (as above) and polyethylene glycol dimethacrylate (Molecular weight = 400) (PEGDMA 400).
10^-5 moles of at least one compound of the invention, together with 0.2% by weight of AMBN (2,2'-azobis(2-methylbutyronitrile)) provided by Akzo, are added to 10 g of formulations able to generate cross-linked matrix I or II. The formulations thus prepared are then poured into a lens mould of 2 mm thickness and then cured by heating at 60°C for 6 hours, followed by heating at 80°C for 2 hours to give a lens sample. The photochromic properties of the lens samples thus obtained were then evaluated as follows : Said lens sample, containing said photochromic compounds in its mass, is exposed to a UV radiation (source: xenon lamp).

Structure (SMILES) | t1/2: time of half-darkness (Matrix II) | t1/2: time of half-darkness (Matrix I)
C1=CC(c2ccccc2)(c2ccccc2)Oc2ccc3ccccc3c21 [Control, 3,3-bisphenyl-3H-naphtho[2,1-b]pyran, reference compound] | 266 s | 
Cc1ccc(NC(=O)c2cc3ccccc3c3c2OC(c2ccccc2)(c2ccccc2)C=C3)cc1 [Example 1, 3,3-diphenyl-5-p-tolylcarbamoyl-3H-naphtho[2,1-b]pyran] |  | 266 s
COc1ccc(C2(c3ccc(OC)cc3OC)C=Cc3c(c(C(=O)N4CCOCC4)cc4ccccc34)O2)c(OC)c1 [Example 2, 3,3-bis(2,4-dimethoxyphenyl)-5-morpholinocarbonyl-3H-naphtho[2,1-b]pyran] |  | 2000 s
CN(C)c1ccc(C2(c3ccc(N(C)C)c4ccccc34)C=Cc3c(c(C(=O)N4CCOCC4)cc4ccccc34)O2)cc1 (stereo not shown) [Example 4, 3-(4-dimethylaminophenyl)-3-(4-dimethylaminonapthyl)-5-morpholinocarbonyl-3H-naphtho[2,1-b]pyran] |  | 1170 s
COc1ccc(C2(c3ccc(OC)cc3OC)C=Cc3c(c(C(=O)N4CCc5ccccc54)cc4ccccc34)O2)c(OC)c1 [Example 5, 3,3-bis(2,4-dimethoxyphenyl)-5-indolinocarbonyl--3H-naphtho[2,1-b]pyran] | 400 s | 1420 s
COc1ccc(C2(c3ccc(OC)cc3OC)C=Cc3c(c(C(=O)N4CCOCC4)cc4ccccc34)O2)cc1 (stereo not shown) [Example 6, 3-(2,4-dimethoxyphenyl)-3-(4-methoxyphenyl)-5-morpholinocarbonyl-3H-naphtho[2,1-b]pyran] | 655 s | 1128 s
COc1ccc(C2(c3ccc(OC)c(OC)c3)C=Cc3c(c(C(=O)N4CCOCC4)cc4ccccc34)O2)c(OC)c1 (stereo not shown) [Example 7, 3-(2,4-dimethoxyphenyl)-3-(3,4-dimethoxyphenyl)-5-morpholinocarbonyl-3H-naphtho[2,1-b]pyran] | 236 s | 560 s
COc1ccc(C2(c3ccc(N4CCCCC4)cc3)C=Cc3c(c(C(=O)N4CCCCC4)cc4ccccc34)O2)c(OC)c1 (stereo not shown) [Example 8, 3-(2,4-dimethoxyphenyl)-3-(p-N-piperidinophenyl)-5-piperidinocarbonyl-3H-naphtho[2,1-b]pyran] | 306 s | 560 s
COc1ccc(C2(c3ccc(OC)cc3OC)C=Cc3c(c(C(=O)N4CCCCC4)cc4ccccc34)O2)c(OC)c1 [Example 9, 3,3-bis(2,4-dimethoxyphenyl)-5-piperidinocarbonyl-3H-naphtho[2,1-b]pyran] | 290 s | 
